Reference: the supplement of paper PMC4967469

Legend:
AICAR = compound: NC(=O)c1ncn([C@@H]2O[C@H](CO)[C@@H](O)[C@H]2O)c1N [AICAR]; assay: Viability of human cancer cell lines after 72 h of drug (GDSC screen); details: top dose 2000 µM; top dose inferred
Method: (§1)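 Human cancer cell lines in 384-well plates, medium with 10% serum, drug for 72 h over a 256-fold dose range (nine 2-fold or five 4-fold steps up to the top dose). Adherent lines were fixed and stained with the nucleic acid dye Syto60, suspension lines read with resazurin; signal relative to control wells, capped at 0 and 100%. One two-parameter sigmoid per drug and line, fitted in a mixed model over all curves with the slope shared within a line.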

AKT inhibitor VIII = compound: O=c1[nH]c2ccccc2n1C1CCN(Cc2ccc(-c3[nH]c4cc5ncnc5cc4nc3-c3ccccc3)cc2)CC1 [AKT inhibitor VIII]; assay: as above; details: top dose inferred
Method: as §1

[1] = top dose 2.56 µM, screen: GDSC drug entry 171
[2] = top dose 10.24 µM, screen: GDSC drug entry 228

| Cell Line | AUC (AICAR) | IC50 (AICAR) | AUC (AKT inhibitor VIII; [1]) | IC50 (AKT inhibitor VIII; [1]) | AUC (AKT inhibitor VIII; [2]) | IC50 (AKT inhibitor VIII; [2]) |
| --- | --- | --- | --- | --- | --- | --- |
| 22RV1 (prostate, adherent) | 0.9 | > 2000 µM | 0.876 | > 2.56 µM | 0.706 | 2.83 µM |
| 201T (lung adenocarcinoma, adherent) | 0.972 | > 2000 µM | 0.822 | 2.03 µM | 0.686 | 2.44 µM |
| KMS-11 (myeloma, suspension) | 0.823 | 958 µM |  |  | 0.857 | 6.49 µM |
| OVCAR-4 (ovary, adherent) | 0.763 | 1080 µM | 0.93 | > 2.56 µM | 0.852 | > 10.2 µM |
| MCF7 (breast, adherent) | 0.823 | 1230 µM | 0.95 | > 2.56 µM | 0.986 | > 10.2 µM |
| NB13 (neuroblastoma, adherent) | 0.99 | > 2000 µM | 0.99 | > 2.56 µM | 0.949 | > 10.2 µM |
| NCI-H1993 (lung adenocarcinoma, adherent) | 0.98 | > 2000 µM | 0.942 | > 2.56 µM | 0.66 | 2.06 µM |
| MKN7 (stomach, adherent) | 0.885 | > 2000 µM |  |  |  |  |
| DSH1 (bladder, adherent) | 0.889 | > 2000 µM | 0.777 | 0.984 µM | 0.743 | 3.07 µM |
| EW-13 (Ewing sarcoma, suspension) | 0.884 | > 2000 µM | 0.985 | > 2.56 µM | 0.662 | 1.91 µM |
| D-502MG (glioma, adherent) | 0.946 | > 2000 µM | 0.977 | > 2.56 µM | 0.941 | > 10.2 µM |
| 647-V (bladder, adherent) | 0.838 | 1360 µM | 0.922 | > 2.56 µM | 0.921 | > 10.2 µM |
| IPC-298 (melanoma, adherent) | 0.93 | > 2000 µM | 0.975 | > 2.56 µM | 0.966 | > 10.2 µM |
| REH (B-cell leukaemia, suspension) | 0.868 | 1710 µM | 0.921 | > 2.56 µM | 0.466 | 0.518 µM |
| CS1 (bone, adherent) | 0.808 | 1190 µM | 0.926 | > 2.56 µM | 0.852 | 9.43 µM |
| SiHa (cervix, adherent) | 0.975 | > 2000 µM | 0.969 | > 2.56 µM | 0.985 | > 10.2 µM |
| HCC1954 (breast, adherent) | 0.84 | 1710 µM | 0.924 | > 2.56 µM | 0.733 | 3.36 µM |
| MS751 (cervix, adherent) | 0.806 | 922 µM | 0.986 | > 2.56 µM | 0.982 | > 10.2 µM |
| HuCCT1 (biliary tract, adherent) | 0.827 | 1410 µM | 0.94 | > 2.56 µM | 0.918 | > 10.2 µM |
| DBTRG-05MG (glioma, adherent) | 0.869 | > 2000 µM | 0.968 | > 2.56 µM | 0.967 | > 10.2 µM |
| SAS (head and neck, adherent) | 0.719 | 564 µM | 0.969 | > 2.56 µM | 0.914 | > 10.2 µM |
| Jurkat (T-cell leukaemia, suspension) | 0.989 | > 2000 µM |  |  |  |  |
| NCI-H1341 (small cell lung carcinoma, suspension) | 0.872 | 1440 µM |  |  |  |  |

A lower IC50 marks a more sensitive line; a limit (>, <) means that the fit lies beyond the doses tested. The AUC spans the tested range (256-fold, ending at the top dose) of the same fit; it is 1 without any effect and falls as sensitivity rises. The top dose, if marked as inferred, is not printed in the source and was worked back from the curve model. For some of these results: Drugs with an entry number were screened twice under separate entries, and the two screens often disagree.
